One molecule from patent publication US5741689, “Methods to inhibit serine kinase activity and to alter intersubunit binding activity of phosphatidylinositol 3-kinase, and serine kinase active sequence of the same” (Ludwig Institute for Cancer Research, dated 1998) can be followed below.

In the assay the target is p110 subunit of PI3-kinase (bovine, wild type, recombinant) (bovine, UniProt P32871). The experiment in a line: GST on glutathione-sepharose, p110 Sf9 lysate, bound PI3-kinase activity. Here is the method:
GST fusion proteins of the various subdomains of p85α were constructed and immobilized on glutathione-sepharose beads, See FIG. 2, A. These proteins were used for affinity analysis with cell lysates prepared from Sf9 cells infected with a recombinant baculovirus expressing p110. The complexes were washed and subjected to PI3-kinase activity. GST alone, and GST p85α bound to glutathione-sepharose beads incubated with wild-type lysate were used as controls.

B1: GST alone (other)
chain: not shown
In the case of B1, the binding result is listed as “no binding”.
